# In the supplement of paper PMC8728848:
# This is one part of the list.
# What was measured:
# Assay in all cases: glycan array binding signal (z-score within array); higher = stronger binding
# Settings in all cases: glycan notation: IUPAC condensed, linker removed
# Gal(b1-4)Glc6S = biological target: Gal(b1-4)Glc6S
# Procedure, shortened: (§1)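 The binding signal is a Z-score computed within each array. Data were drawn from 3228 arrays in the Consortium for Functional Glycomics database, restricted to those with a known protein sequence. Scores were averaged over arrays of the same protein sequence at different concentrations or buffers, and over linkers, and negative values can be taken as non-binding.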
# Gal(b1-4)GlcNAc = biological target: Gal(b1-4)GlcNAc
# Procedure, shortened: as §1
# [1] = biological target: Gal(b1-4)GlcNAc(a1-6)Gal(b1-4)GlcNAc
# Procedure, shortened: as §1
# Gal(b1-4)GlcNAc(b1-2)Man = biological target: Gal(b1-4)GlcNAc(b1-2)Man
# Procedure, shortened: as §1
# [2] = biological target: Gal(b1-4)GlcNAc(b1-2)Man(a1-3)Man(b1-4)GlcNAc(b1-4)GlcNAc
# Procedure, shortened: as §1
# [3] = biological target: Gal(b1-4)GlcNAc(b1-2)Man(a1-3)[Gal(b1-4)GlcNAc(b1-2)Man(a1-6)]Man(b1-4)GlcNAc(b1-4)GlcNAc
# Procedure, shortened: as §1
# [4] = biological target: Gal(b1-4)GlcNAc(b1-2)Man(a1-3)[Gal(b1-4)GlcNAc(b1-2)Man(a1-6)]Man(b1-4)GlcNAc(b1-4)[Fuc(a1-6)]GlcNAc
# Procedure, shortened: as §1
# [5] = biological target: Gal(b1-4)GlcNAc(b1-2)Man(a1-3)[Gal(b1-4)GlcNAc(b1-2)Man(a1-6)][Gal(b1-4)GlcNAc(b1-4)]Man(b1-4)GlcNAc(b1-4)[Fuc(a1-6)]GlcNAc
# Procedure, shortened: as §1
# [6] = biological target: Gal(b1-4)GlcNAc(b1-2)Man(a1-3)[Gal(b1-4)GlcNAc(b1-2)Man(a1-6)][GlcNAc(b1-4)]Man(b1-4)GlcNAc(b1-4)[Fuc(a1-6)]GlcNAc
# Procedure, shortened: as §1
# [7] = biological target: Gal(b1-4)GlcNAc(b1-2)Man(a1-3)[GlcNAc(b1-2)Man(a1-6)]Man(b1-4)GlcNAc(b1-4)GlcNAc
# Procedure, shortened: as §1
# [8] = biological target: Gal(b1-4)GlcNAc(b1-2)Man(a1-3)[GlcNAc(b1-4)][Gal(b1-4)GlcNAc(b1-2)Man(a1-6)]Man(b1-4)GlcNAc(b1-4)GlcNAc
# Procedure, shortened: as §1
# [9] = biological target: Gal(b1-4)GlcNAc(b1-2)Man(a1-3)[Man(a1-6)]Man(b1-4)GlcNAc(b1-4)GlcNAc
# Procedure, shortened: as §1
# [10] = biological target: Gal(b1-4)GlcNAc(b1-2)Man(a1-6)Man(b1-4)GlcNAc(b1-4)GlcNAc
# Procedure, shortened: as §1
# [11] = biological target: Gal(b1-4)GlcNAc(b1-2)Man(a1-6)[GlcNAc(b1-2)Man(a1-3)]Man(b1-4)GlcNAc(b1-4)GlcNAc
# Procedure, shortened: as §1
# [12] = biological target: Gal(b1-4)GlcNAc(b1-2)Man(a1-6)[Man(a1-3)]Man(b1-4)GlcNAc(b1-4)GlcNAc
# Procedure, shortened: as §1
# [13] = biological target: Gal(b1-4)GlcNAc(b1-2)[Gal(b1-4)GlcNAc(b1-4)]Man(a1-3)[Gal(b1-4)GlcNAc(b1-2)Man(a1-6)]Man(b1-4)GlcNAc(b1-4)GlcNAc
# Procedure, shortened: as §1
# [14] = biological target: Gal(b1-4)GlcNAc(b1-2)[Gal(b1-4)GlcNAc(b1-4)]Man(a1-3)[Gal(b1-4)GlcNAc(b1-2)[Gal(b1-4)GlcNAc(b1-6)]Man(a1-6)]Man(b1-4)GlcNAc(b1-4)GlcNAc
# Procedure, shortened: as §1
# [15] = biological target: Gal(b1-4)GlcNAc(b1-2)[Gal(b1-4)GlcNAc(b1-4)]Man(a1-3)[GlcNAc(b1-4)][Gal(b1-4)GlcNAc(b1-2)Man(a1-6)]Man(b1-4)GlcNAc(b1-4)GlcNAc
# Procedure, shortened: as §1
# [16] = biological target: Gal(b1-4)GlcNAc(b1-2)[Gal(b1-4)GlcNAc(b1-4)]Man(a1-3)[GlcNAc(b1-4)][Gal(b1-4)GlcNAc(b1-2)[Gal(b1-4)GlcNAc(b1-6)]Man(a1-6)]Man(b1-4)GlcNAc(b1-4)GlcNAc
# Procedure, shortened: as §1
# [17] = biological target: Gal(b1-4)GlcNAc(b1-2)[Gal(b1-4)GlcNAc(b1-6)]Man(a1-6)[Gal(b1-4)GlcNAc(b1-2)Man(a1-3)]Man(b1-4)GlcNAc(b1-4)GlcNAc
# Procedure, shortened: as §1
# [18] = biological target: Gal(b1-4)GlcNAc(b1-2)[Gal(b1-4)GlcNAc(b1-6)]Man(a1-6)[Gal(b1-4)GlcNAc(b1-2)Man(a1-3)]Man(b1-4)GlcNAc(b1-4)[Fuc(a1-6)]GlcNAc
# Procedure, shortened: as §1
# [19] = biological target: Gal(b1-4)GlcNAc(b1-2)[Gal(b1-4)GlcNAc(b1-6)]Man(a1-6)[GlcNAc(b1-4)][Gal(b1-4)GlcNAc(b1-2)Man(a1-3)]Man(b1-4)GlcNAc(b1-4)GlcNAc
# Procedure, shortened: as §1
# [20] = biological target: Gal(b1-4)GlcNAc(b1-2)[Gal(b1-4)GlcNAc(b1-6)]Man(a1-6)[GlcNAc(b1-4)][Gal(b1-4)GlcNAc(b1-2)[Gal(b1-4)GlcNAc(b1-4)]Man(a1-3)]Man(b1-4)GlcNAc(b1-4)[Fuc(a1-6)]GlcNAc
# Procedure, shortened: as §1
# [21] = biological target: Gal(b1-4)GlcNAc(b1-3)Gal(b1-3)GalNAc
# Procedure, shortened: as §1
# [22] = biological target: Gal(b1-4)GlcNAc(b1-3)Gal(b1-3)GlcNAc
# Procedure, shortened: as §1
# [23] = biological target: Gal(b1-4)GlcNAc(b1-3)Gal(b1-4)Glc
# Procedure, shortened: as §1
# [24] = biological target: Gal(b1-4)GlcNAc(b1-3)Gal(b1-4)GlcNAc
# Procedure, shortened: as §1
# [25] = biological target: Gal(b1-4)GlcNAc(b1-3)Gal(b1-4)GlcNAc(b1-2)Man(a1-3)[Gal(b1-4)GlcNAc(b1-3)Gal(b1-4)GlcNAc(b1-2)Man(a1-6)]Man(b1-4)GlcNAc(b1-4)GlcNAc
# Procedure, shortened: as §1
# [26] = biological target: Gal(b1-4)GlcNAc(b1-3)Gal(b1-4)GlcNAc(b1-2)Man(a1-3)[Gal(b1-4)GlcNAc(b1-3)Gal(b1-4)GlcNAc(b1-2)Man(a1-6)]Man(b1-4)GlcNAc(b1-4)[Fuc(a1-6)]GlcNAc
# Procedure, shortened: as §1
# [27] = biological target: Gal(b1-4)GlcNAc(b1-3)Gal(b1-4)GlcNAc(b1-2)[Gal(b1-4)GlcNAc(b1-3)Gal(b1-4)GlcNAc(b1-6)]Man(a1-6)[Gal(b1-4)GlcNAc(b1-3)Gal(b1-4)GlcNAc(b1-2)Man(a1-3)]Man(b1-4)GlcNAc(b1-4)GlcNAc
# Procedure, shortened: as §1
# [28] = biological target: Gal(b1-4)GlcNAc(b1-3)Gal(b1-4)GlcNAc(b1-2)[Gal(b1-4)GlcNAc(b1-3)Gal(b1-4)GlcNAc(b1-6)]Man(a1-6)[Gal(b1-4)GlcNAc(b1-3)Gal(b1-4)GlcNAc(b1-2)Man(a1-3)]Man(b1-4)GlcNAc(b1-4)[Fuc(a1-6)]GlcNAc
# Procedure, shortened: as §1
# [29] = biological target: Gal(b1-4)GlcNAc(b1-3)Gal(b1-4)GlcNAc(b1-3)Gal(b1-4)GlcNAc
# Procedure, shortened: as §1
# [30] = biological target: Gal(b1-4)GlcNAc(b1-3)Gal(b1-4)GlcNAc(b1-3)Gal(b1-4)GlcNAc(b1-2)Man(a1-3)[Gal(b1-4)GlcNAc(b1-3)Gal(b1-4)GlcNAc(b1-3)Gal(b1-4)GlcNAc(b1-2)Man(a1-6)]Man(b1-4)GlcNAc(b1-4)GlcNAc
# Procedure, shortened: as §1
# [31] = biological target: Gal(b1-4)GlcNAc(b1-3)Gal(b1-4)GlcNAc(b1-3)Gal(b1-4)GlcNAc(b1-2)Man(a1-3)[Gal(b1-4)GlcNAc(b1-3)Gal(b1-4)GlcNAc(b1-3)Gal(b1-4)GlcNAc(b1-2)Man(a1-6)]Man(b1-4)GlcNAc(b1-4)[Fuc(a1-6)]GlcNAc
# Procedure, shortened: as §1
# [32] = biological target: Gal(b1-4)GlcNAc(b1-3)Gal(b1-4)GlcNAc(b1-3)Gal(b1-4)GlcNAc(b1-2)[Gal(b1-4)GlcNAc(b1-3)Gal(b1-4)GlcNAc(b1-3)Gal(b1-4)GlcNAc(b1-6)]Man(a1-6)[Gal(b1-4)GlcNAc(b1-3)Gal(b1-4)GlcNAc(b1-3)Gal(b1-4)GlcNAc(b1-2)Man(a1-3)]Man(b1-4)GlcNAc(b1-4)[Fuc(a1-6)]GlcNAc
# Procedure, shortened: as §1
# [33] = biological target: Gal(b1-4)GlcNAc(b1-3)Gal(b1-4)GlcNAc(b1-3)Gal(b1-4)GlcNAc(b1-3)Gal(b1-4)GlcNAc(b1-2)Man(a1-3)[Gal(b1-4)GlcNAc(b1-3)Gal(b1-4)GlcNAc(b1-3)Gal(b1-4)GlcNAc(b1-3)Gal(b1-4)GlcNAc(b1-2)Man(a1-6)]Man(b1-4)GlcNAc(b1-4)GlcNAc
# Procedure, shortened: as §1
# [34] = biological target: Gal(b1-4)GlcNAc(b1-3)Gal(b1-4)GlcNAc(b1-3)Gal(b1-4)GlcNAc(b1-3)Gal(b1-4)GlcNAc(b1-2)Man(a1-3)[Gal(b1-4)GlcNAc(b1-3)Gal(b1-4)GlcNAc(b1-3)Gal(b1-4)GlcNAc(b1-3)Gal(b1-4)GlcNAc(b1-2)Man(a1-6)]Man(b1-4)GlcNAc(b1-4)[Fuc(a1-6)]GlcNAc
# Procedure, shortened: as §1
# [35] = biological target: Gal(b1-4)GlcNAc(b1-3)Gal(b1-4)GlcNAc(b1-3)Gal(b1-4)GlcNAc(b1-3)Gal(b1-4)GlcNAc(b1-2)[Gal(b1-4)GlcNAc(b1-3)Gal(b1-4)GlcNAc(b1-3)Gal(b1-4)GlcNAc(b1-3)Gal(b1-4)GlcNAc(b1-6)]Man(a1-6)[Gal(b1-4)GlcNAc(b1-3)Gal(b1-4)GlcNAc(b1-3)Gal(b1-4)GlcNAc(b1-3)Gal(b1-4)GlcNAc(b1-2)Man(a1-3)]Man(b1-4)GlcNAc(b1-4)[Fuc(a1-6)]GlcNAc
# Procedure, shortened: as §1
binder,measurement,setting,value
"CSA (Cytisus scoparius), P29257 (protein) SEELSFSFTKFKTDQKNLILQRDALITPTGKLQLTTVENGKPAAYSLGRALYSTPIHIWDKSTGDEASFATFFSFVISDAPNPSTAATDGLAFFLAPADTQPQSAGGYLGLFEKDSSYNSSNQIVAVEFDTYYNSAWDPQTNPHIGIDVNTIKSKKVSSWGFKNGNVATVLITYQPSSKSLVASLVYPSGQTSDKTSYIISANVDLKATVPEWVRIGFSATTGQTDNYIETHDILSWSFKSKLPATKN",glycan array binding signal (z-score),Gal(b1-4)Glc6S,-0.158
same,glycan array binding signal (z-score),Gal(b1-4)GlcNAc,-0.142
same,glycan array binding signal (z-score),[1],-0.217
same,glycan array binding signal (z-score),Gal(b1-4)GlcNAc(b1-2)Man,-0.173
same,glycan array binding signal (z-score),[2],-0.221
same,glycan array binding signal (z-score),[3],0.292
same,glycan array binding signal (z-score),[4],-0.164
same,glycan array binding signal (z-score),[5],0.178
same,glycan array binding signal (z-score),[6],-0.165
same,glycan array binding signal (z-score),[7],-0.199
same,glycan array binding signal (z-score),[8],-0.159
same,glycan array binding signal (z-score),[9],-0.139
same,glycan array binding signal (z-score),[10],-0.172
same,glycan array binding signal (z-score),[11],-0.231
same,glycan array binding signal (z-score),[12],-0.179
same,glycan array binding signal (z-score),[13],-0.073
same,glycan array binding signal (z-score),[14],0.376
same,glycan array binding signal (z-score),[15],-0.066
same,glycan array binding signal (z-score),[16],0.13
same,glycan array binding signal (z-score),[17],-0.14
same,glycan array binding signal (z-score),[18],-0.09
same,glycan array binding signal (z-score),[19],-0.118
same,glycan array binding signal (z-score),[20],0.607
same,glycan array binding signal (z-score),[21],-0.103
same,glycan array binding signal (z-score),[22],-0.17
same,glycan array binding signal (z-score),[23],-0.154
same,glycan array binding signal (z-score),[24],-0.137
same,glycan array binding signal (z-score),[25],0.356
same,glycan array binding signal (z-score),[26],-0.047
same,glycan array binding signal (z-score),[27],-0.059
same,glycan array binding signal (z-score),[28],0.259
same,glycan array binding signal (z-score),[29],-0.206
same,glycan array binding signal (z-score),[30],0.488
same,glycan array binding signal (z-score),[31],0.223
same,glycan array binding signal (z-score),[32],0.479
same,glycan array binding signal (z-score),[33],0.39
same,glycan array binding signal (z-score),[34],0.228
same,glycan array binding signal (z-score),[35],0.826
